Test results reported in patent publication US4483989A, “Synthesis of pyrido[4,3-b]carbazole derivatives” (priority 1973, dated 1984).
At least one read-out could not be matched to a standard name with certainty.

Tested on: mouse L 1210 leukemia
Test: L1210 leukemia in mice: inoculum of 10^5 cells, single dose of compound 24 hours later
Type: in vivo
Conditions: inoculum 10^5 L1210 cells
Source text: The experimental tumor mouse L 1210 leukemia is commonly used to evaluate the effects of all the antitumor compounds now used in human therapeutics,as was described, for example, by C. C. ZUBROD in Proc. Nat. Acad. Sci. USA 69, 1972, pp. 1042-1047. This experimentally formed tumoral system permits very accurate quantitative evaluation of the activity of the compound tested and also, consequently, an objective comparison of the respective activities of various compounds, for example, according to the methods described by H. E. SKIPPER, F. M. SCHABEL Jr. and W. S. WILCOX in Cancer Chemiother. Rep. 1964, pp. 1-111 and 45, 1965, pp. 5-28.
The mice were randomized in each experimental series. A first routine experiment enable the death rate by toxicity to be determined and thus established the sublethal doses.
According to the convention in force in this field, the animals which survived longer than 45 days after inoculation of tumoral cells were considered to be cured.
To evaluate the therapeutic activity of the compounds of the invention, doses of said compound were expressed basing them on the 30 days sublethal dose which was fixed at 1.
A--A tumoral inoculum of 10^5 L1210 leukemia cells was administered by the intraperitoneal way to twenty 2 to 3 months old DBA/2 strain female mice. 24 hours later, half of said mice received a single intraperitoneal injection of a variable dose of the compound to be tested and the same volume of solvent was administered to the other half of the mice by the same way; this latter half of the group of mice was therefore used as the control series. The mice were randomized in each experimental series.
Animals surviving for longer than 45 days were considered to be cured.

[1] = I.P., dose 0.002 of the sublethal dose
[2] = I.P., dose 0.01 of the sublethal dose
[3] = I.P., dose 0.02 of the sublethal dose
[4] = I.P., dose 0.1 of the sublethal dose
[5] = I.P., dose 0.2 of the sublethal dose
[6] = I.P., dose 0.5 of the sublethal dose
[7] = I.V., dose 1 (the sublethal dose)
[8] = I.P., dose 0.05 of the sublethal dose
[9] = I.P., dose 1 (the sublethal dose)

With `CCN(CC)CC[n+]1ccc2c(C)c3[nH]c4ccc(O)cc4c3c(C)c2c1` [9-hydroxy-2(β-diethylamino-ethyl)-ellipticinium acetate] as the compound, how does the “% of killed cells” value [1] read?
Its value is 95%.

And the “Mean survival in days for treated mice” value [1]?
Its value is 10.0 days.

What about the “% of killed cells” value [2] of the same compound?
Its value is 99.7%.

And the “Mean survival in days for treated mice” value [2]?
The value was 11.5 days.

What about the “% of killed cells” value [3] of the same compound?
Its value is 99.8%.

And the “Mean survival in days for treated mice” value [3]?
Its value is 11.7 days.

What about the “% of killed cells” value [4] of the same compound?
Its value is 99.998%.

And the “Mean survival in days for treated mice” value [4]?
Its value is 14.5 days.

And the “% of killed cells” value [5]?
Its value is 99.96%.

And the “Mean survival in days for treated mice” value [5]?
Its value is 12.7 days.

What about the “Mean survival in days for treated mice” value (I.P., dose 0.3 of the sublethal dose) of the same compound?
The value was 20.4 days.

And the “Mean survival in days for treated mice” value [6]?
Its value is 18.4 days.

And the “% of killed cells” value [7]?
The value was 90%.

And the “Mean survival in days for treated mice” value [7]?
Its value is 11.1 days.

Which results are given for `Cc1c2c[n+](C)ccc2c(C)c2c1c1cc(O)ccc1n2C` [9-hydroxy-2,6-dimethyl-ellipticinium acetate]?
% of killed cells [2]: 90%; % of killed cells [3]: 92%; % of killed cells [8]: 98%; % of killed cells [4]: 99.96%; % of killed cells [5]: 99.95%; % of killed cells [9]: 99.999%

`Cc1c2cc[n+](C)cc2c(C)c2c1[nH]c1ccc(O)cc12` [9-hydroxy 2-methyl ellipticinium acetate, 9-hydroxy-2-methyl-ellipticinium acetate] was tested. Which “% of killed cells” value [4] did it give?
Its value is 97%.

And the “Mean survival in days for treated mice” value [4]?
Its value is 11.3 ± 0.5 days.

And the “% of killed cells” value [5]?
Its value is 99.5%.

What about the “Mean survival in days for treated mice” value [5] of the same compound?
The value was 12.2 ± 0.8 days.

What about the “% of killed cells” value [6] of the same compound?
The value was 99.6%.

What about the “Mean survival in days for treated mice” value [6] of the same compound?
The value was 12.5 ± 0.7 days.

What about the “% of killed cells” value [9] of the same compound?
Its value is 99.999%.

What about the “Mean survival in days for treated mice” value [9] of the same compound?
The value was 15.7 ± 0.8 days.

For `CC(=O)Oc1ccc2c(c1)c1c(C)c3c[n+](C)ccc3c(C)c1n2C` [9-acetoxy-2,6-dimethyl-ellipticinium acetate], which “% of killed cells” value [9] is on record?
The value was 99.999%.

How did the “% of killed cells” value [1] turn out when `CC[n+]1ccc2c(C)c3[nH]c4ccc(O)cc4c3c(C)c2c1` [9-hydroxy-2-ethyl ellipticinium acetate, 9-hydroxy-2-ethyl-ellipticinium acetate] was run?
The value was 92%.

What about the “% of killed cells” value [2] of the same compound?
The value was 98.2%.

What about the “% of killed cells” value [3] of the same compound?
The value was 99.7%.

What about the “% of killed cells” value [8] of the same compound?
The value was 99.7%.

What about the “% of killed cells” value (I.V., dose 0.33 of the sublethal dose) of the same compound?
The value was 96.3%.

And the “% of killed cells” value [7]?
Its value is 98.8%.

Which “% of killed cells” value (I.P., dose 0.005 of the sublethal dose) does the source give for `CC[n+]1ccc2c(C)c3[nH]c4ccc(OC(C)=O)cc4c3c(C)c2c1` [9-acetoxy-2-ethyl-ellipticinium acetate] here?
Its value is 90%.

And the “% of killed cells” value [2]?
Its value is 99.7%.

What about the “% of killed cells” value [3] of the same compound?
Its value is 99.8%.

And the “% of killed cells” value [4]?
The value was 99.994%.

With `Cc1c2ccncc2c(C)c2c1[nH]c1ccc(O)cc12` [Example 9-OH--E, 9-hydroxy-ellipticine, reference compound] as the compound, how does the “% of killed cells” value [9] read?
The value was 99.99%.

What does the source list for `CC[n+]1ccc2c(C)c3c(c(C)c2c1)c1cc(O)ccc1n3C` [9-hydroxy-6-methyl-2-ethyl-ellipticinium acetate]?
% of killed cells [4]: 98.2%; % of killed cells [7]: 90%
